Assay results: article PMC12136788
Some of the results follow.

T1: UNK ZnF1-3 (human, UniProt Q9C0B0 31-174)
T1 sequence: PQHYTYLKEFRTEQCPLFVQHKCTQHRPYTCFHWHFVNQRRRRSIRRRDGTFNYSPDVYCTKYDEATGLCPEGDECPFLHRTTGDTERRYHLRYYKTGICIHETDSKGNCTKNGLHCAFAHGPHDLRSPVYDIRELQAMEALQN

B1: chr7:141441981:141441982:+_ENSG00000106028_ENST00000265304|hu_mus|hu_hu_hu_mus_False|1_58 (ssRNA)
RNA: GGGAGUUCUACAGUCCGACGAUCCUCAUGUCUUACAAACUGACGAAAUACCUGUAACACAGGUCUUCGAAACAUGGCUUCUAUUUUUCUUACAACCUAAUCUUUAGGCUUUUCCUAAAGGAAAGAAAGAAAAGAGAAGCCCAGCAACAGAGGAUUGAGCAUCA
B2: 52803601_52810448_4060_CDS_ENSG00000157077_ENST00000287727|human|control|control (ssRNA)
RNA: GGGAGUUCUACAGUCCGACGAUCGAAAAACACCUCUGUCCAUCUGAUUACUUUUCCAUUUGCUUUAUAUUCUGAUCCAUGGAAUAUCUUCACAUUUGUUAUAGUCUCCAUGGACUUCCCAUCUAUAGGACUUACGACACCCUUCAACAGAGGAUUGAGCAUCA
B3: chr5:71593506:71593507:-_ENSG00000113048_ENST00000457646|hu_hu|FALSE|FALSE (ssRNA)
RNA: GGGAGUUCUACAGUCCGACGAUCGAUCUAUCUCUUCCCGAGAGGAAAUGUUGUCUAUAAGCCGUGAUAUUGUUAAAGAACUAACAGGCAACUUUCUCUCAAAUGUUUUAUCCAUUAAAGAUGCAAGAUCAGCAAGACAGUAAUCAACAGAGGAUUGAGCAUCA
B4: chr4:115894766:115894767:+_ENSMUSG00000028698_ENSMUST00000030464|mus_hu|mus_mus_mus_hu_True|58_78 (ssRNA)
RNA: GGGAGUUCUACAGUCCGACGAUCUUCCACACGGAAAUGUACUUCGGGUUUUCCAACGCCAGUACAAAGUCCGGCCAACUACUAGGAACAGGGUCCUCCCCCUCUCUCCUACAGAACACAACAAAAUGCCCCCGAACUUUCAAGCAACAGAGGAUUGAGCAUCA
B5: chr5:34943985:34943986:+_ENSMUSG00000029106_ENSMUST00000114338|mus_mus|motif|central (ssRNA)
RNA: GGGAGUUCUACAGUCCGACGAUCGUGGUUGGAGGUGGUGAGGUCACCACUGCGGCCCGAGUGUCACCAUUCAUUGCACAAUUUUCCGGGGGUCCUCCGCGGAGAAUCGGGGAGAGAGCACGGCUUCCCGGGUCCGAGUGCGGCCAACAGAGGAUUGAGCAUCA
B6: chr10:93459826:93459827:-_ENSMUSG00000036099_ENSMUST00000119818|mus_hu|FALSE|FALSE (ssRNA)
RNA: GGGAGUUCUACAGUCCGACGAUCUCCCCAUACCAGCCAGGAAGACACAAUCCACCAAGUGGGAAGCAUAACGAGCAAGCUAAUGAAGGCAAAUAGCAUUGAGAGAUCCCAAAUAUUAGGGGUUGCCAGGGAGCAAAGUGUUGGCAACAGAGGAUUGAGCAUCA
B7: chr16:46836887:46836888:-_ENSG00000155330_ENST00000285697|hu_hu|motif|central (ssRNA)
RNA: GGGAGUUCUACAGUCCGACGAUCUUCAGCAGAUUUUGCAAACAAGUAUCAGAGAAUAAGUCUUUGAUUGAUAAUUUUUCGGUUUAUUUCUGCCAAGGCGACUGAAAACACGAAAGCCUUUUCAUCAGACAGGUUAGCAUAGAUCAACAGAGGAUUGAGCAUCA
B8: chr3:25648697:25648698:-_ENSG00000077097_ENST00000264331|hu_mus|FALSE|FALSE (ssRNA)
RNA: GGGAGUUCUACAGUCCGACGAUCUUUGUCAUUUGAAGAUUUUUCUGGAGUAGCUUUGGAUUUGCCUGAAGAAAAAGCAUACUCAUCUUUAUCUAAGCCAUCUGAAGGAACAAAUUCAUCUUCCCCAUCAUUUGUUAUGGGAGACAACAGAGGAUUGAGCAUCA
B9: 110845328_110845448_7506_3pUTR_ENSMUSG00000021700_ENSMUST00000167824|mouse|control|control (ssRNA)
RNA: GGGAGUUCUACAGUCCGACGAUCUCAGCGACCACGUGACAACAAGUGAAGCCUUUAACUAUCCUCUUAAACUAUUAUUCUGUGGUCAGCUACCUGCUUCUGCUUUUAUUUCCCUUCUAAUUUGGCACUAAGUCUUUGCUAUCUCAACAGAGGAUUGAGCAUCA
B10: 48584822_48591857_1498_CDS_ENSG00000141646_ENST00000342988|human|control|control (ssRNA)
RNA: GGGAGUUCUACAGUCCGACGAUCCUUAAAUGUCUCUCCUACCUGAACAUCCAUUUCAAAGUAAGCAAUGGAACACCAAUACUCAGGAGCAGGAUGAUUGGAAAUGGGAGGCUGGAAUGCAAGCUCAUUGUGAACAGGCCAGUACAACAGAGGAUUGAGCAUCA
B11: chr2:230636304:230636305:-_ENSG00000153827_ENST00000389045|hu_hu|FALSE|FALSE (ssRNA)
RNA: GGGAGUUCUACAGUCCGACGAUCGUACUGAAGAUGACUGAGUGGGAAGACUGAUUCAAAUCCAUCUCUGAACGAAUCAAAUUGCCUAGAAACGCCUUCAUUUAGUGCCCAGAAUAUAACCAGUCUUAGAUACUCCUCUAAAUUCAACAGAGGAUUGAGCAUCA
B12: chr4:95690885:95690886:+_ENSMUSG00000028572_ENSMUST00000156910|mus_mus|mus_mus_mus_hu_False|1_88 (ssRNA)
RNA: GGGAGUUCUACAGUCCGACGAUCUUUAGAAAAUGUUAAAUACCAUGAGCAUGCUAAUUCAAAGGCUUAUUUUAUUUUACCAGAAGUCACAGGCAAGCAGACACUACAAGAAUAUAUGAAAAUGAAACUCAACAAUAAAAUGUACAACAGAGGAUUGAGCAUCA
B13: 27607926_27608704_485_CDS_ENSG00000115241_ENST00000350803|human|control|control (ssRNA)
RNA: GGGAGUUCUACAGUCCGACGAUCAUGCAGCAGUGCAGCCUCCUCAUUGUCCACAUCAUCUUCAUCAGCUACUUUUUCUUUUUCAUCUUCAUCCUCAGUGGGUCGCCCUGCAAUCUGUGCCAGCUCUUUAAUGACUUCUUCAGUCAACAGAGGAUUGAGCAUCA
B14: chr18:43482012:43482013:-_ENSMUSG00000024501_ENSMUST00000121805|mus_hu|FALSE|FALSE (ssRNA)
RNA: GGGAGUUCUACAGUCCGACGAUCUCUGAAAGACCCCCACAUCUUUGAAGUGUAAACUAAGAGCUACAUUUUCCCUUUUACUACAUCUCCCUUAAAAGAAAAGCACUACAAGAGCUUUAAAAUAGCAAGCUUCCCUAUUCUAAGCAACAGAGGAUUGAGCAUCA

Target: T1, UNK ZnF1-3
Assay: nsRBNS (natural sequence RNA bind-n-seq); RBNS binding buffer (assumed for nsRBNS): 25 mM Tris pH 7.5, 150 mM KCl, 3 mM MgCl2, 0.01% Triton X-100, 500 ug/ml BSA, 20 U/ml SUPERase-In, 4 C; UNK is unkempt and MSI1 is Musashi-1; names of the RNAs are library labels; protein concentration not given here; high values mean tight binding

**Q.** For B1, which binding signal is on record?
**A.** Its binding signal is 0.396 enrichment R.

**Q.** Which binding signal does the source give for B2 here?
**A.** The binding signal was 0.618 enrichment R.

**Q.** For B3, which binding signal is on record?
**A.** The binding signal was 0.888 enrichment R.

**Q.** With B4 as the binder, how does the binding signal read?
**A.** Its binding signal is 0.86 enrichment R.

**Q.** For B5, which binding signal is on record?
**A.** Its binding signal is 1.38 enrichment R.

**Q.** B6 was tested. Which binding signal did it give?
**A.** The binding signal was 1.97 enrichment R.

**Q.** For B7, which binding signal is on record?
**A.** Its binding signal is 0.741 enrichment R.

**Q.** B8 was tested. Which binding signal did it give?
**A.** The binding signal was 0.852 enrichment R.

**Q.** For B9, which binding signal is on record?
**A.** The binding signal was 0.627 enrichment R.

**Q.** Which binding signal does the source give for B10 here?
**A.** Its binding signal is 1.46 enrichment R.

**Q.** B11 was tested. Which binding signal did it give?
**A.** The binding signal was 0.98 enrichment R.

**Q.** B12 was tested. Which binding signal did it give?
**A.** Its binding signal is 1.79 enrichment R.

**Q.** For B13, which binding signal is on record?
**A.** The binding signal was 0.631 enrichment R.

**Q.** With B14 as the binder, how does the binding signal read?
**A.** Its binding signal is 1.11 enrichment R.
